These results are taken from publication PMC6212790.

The other results are listed elsewhere or left out. At the low end of the ranking, values are background and their order means little.

The test addresses T1, GST-Rok-C97-191 (UniProt O34857).
T1 sequence: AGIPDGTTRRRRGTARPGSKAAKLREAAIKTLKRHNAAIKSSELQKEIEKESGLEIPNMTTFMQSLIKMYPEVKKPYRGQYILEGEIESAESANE
Nature of the test: protein binding microarray.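 Further: rank score from −0.5 (least bound) to 0.5 (best bound).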 The following applies: Rok is a gene silencer of Bacillus subtilis; high values mean tight binding; most listed sequences are background and not binding sites; double strand, one strand shown.
With GAGCACGA, the binding signal is -0.282 E-score.

In turn, CTAGTTGA showed a binding signal of 0.2 E-score.

Take CAATGCCA: the binding signal was -0.133 E-score.

In the case of ACTCTCCG, the binding signal is -0.316 E-score.

Regarding CTCGTCTC, the binding signal was -0.134 E-score.

The sequence AGTTGCGC came in with a binding signal of -0.017 E-score.

Sequence ACGTCTCA registered a binding signal of -0.211 E-score.

In the case of CGTACCGA, the binding signal is -0.1 E-score.

AAGGTGAC came in with a binding signal of -0.167 E-score.

On to ACACGCCC, for which the binding signal is -0.129 E-score.

The sequence GAGACGGA showed a binding signal of -0.0409 E-score.

In turn, TAGGGGAA registered a binding signal of -0.22 E-score.

ATCTCCCG registered a binding signal of -0.0519 E-score.

Regarding AGCTCGGG, the binding signal is -0.116 E-score.

Turning to CCAAACTC, the binding signal is -0.0249 E-score.

Turning to ATCAACGG, the binding signal came out at 0.162 E-score.

In turn, CACCCCGA displayed a binding signal of -0.0102 E-score.

In the case of GCATCAGA, the binding signal is -0.0826 E-score.

GGTGATTA: the binding signal was -0.0126 E-score.

AATAAGGA came in with a binding signal of -0.0779 E-score.

As for GCCAAGGA, the binding signal was -0.186 E-score.

Turning to ACGCTGCA, the binding signal is 0.0486 E-score.

In the case of TCATCCAA, the binding signal was -0.0946 E-score.

With AACCTTAA, the binding signal was -0.0493 E-score.

ACGAGAGG: the binding signal is -0.252 E-score.

CGCAACTA: the binding signal was 0.207 E-score.

For AGTCTGGA, the binding signal is -0.00732 E-score.

As for CATCCTAA, the binding signal was determined as 0.0462 E-score.

As for TCCAGTCA, the binding signal is -0.0754 E-score.

For the sequence GCATAAGA, the binding signal is -0.0154 E-score.

As for GATTACAC, the binding signal was -0.0687 E-score.

TGACGGCA gave a binding signal of -0.227 E-score.

TCGTCAGA returned a binding signal of -0.0729 E-score.

The sequence GCGCGGGA registered a binding signal of -0.18 E-score.

For ACGCACGA, the binding signal was -0.0883 E-score.

On to GTCTTCGA, for which the binding signal is -0.174 E-score.

Sequence AGCTATAT returned a binding signal of 0.308 E-score.

In turn, GACGATCC had a binding signal of -0.0848 E-score.

The sequence ATCGCAGC had a binding signal of 0.0323 E-score.

For GTGGGGAA, the binding signal was -0.153 E-score.

In turn, CGGAGTAG had a binding signal of 0.00552 E-score.

For the sequence GTCATTCA, the binding signal was -0.00123 E-score.

On to ATGATGAG, for which the binding signal is 0.0828 E-score.

Turning to ACCTTTTC, the binding signal amounted to 0.00844 E-score.

Sequence ACCTGTTC gave a binding signal of -0.0432 E-score.

Sequence ACTTAGGC displayed a binding signal of 0.00568 E-score.

Sequence CAGAGGCC yielded a binding signal of -0.296 E-score.

On to ACGGACGA, for which the binding signal was -0.135 E-score.

In turn, TAATCAAA had a binding signal of 0.0224 E-score.

As for CCGATGAC, the binding signal was -0.00415 E-score.

Sequence CCTGAGAA came in with a binding signal of -0.132 E-score.

CATTAGTC showed a binding signal of 0.0362 E-score.

With GGCGGACA, the binding signal is -0.298 E-score.

In turn, GCATCGGC yielded a binding signal of -0.158 E-score.

With GCTTATAC, the binding signal was 0.242 E-score.

TGAAGGCA returned a binding signal of -0.0997 E-score.

ACCCACAT had a binding signal of 0.112 E-score.

Sequence CTAAACGA displayed a binding signal of -0.0375 E-score.

With TGACCAAA, the binding signal is -0.053 E-score.

CGCCAAGC: the binding signal is -0.218 E-score.

Sequence AAGTATAG registered a binding signal of 0.171 E-score.

Sequence CCCTAGAC returned a binding signal of -0.31 E-score.

With AACACCTC, the binding signal was determined as 0.0204 E-score.

Turning to ATCTGCTG, the binding signal was 0.0272 E-score.

Sequence GGGCGAAA displayed a binding signal of -0.0243 E-score.

AATATATG gave a binding signal of 0.337 E-score.

The sequence ACGCTAGC had a binding signal of -0.0173 E-score.

On to CGTTGACA, for which the binding signal is -0.179 E-score.

In the case of CGTTCACC, the binding signal was -0.0907 E-score.

CCCTTAGC returned a binding signal of -0.227 E-score.

On to CCGTCATC, for which the binding signal is -0.113 E-score.

In turn, CAATGTGG gave a binding signal of 0.000784 E-score.

AGTCTCCG had a binding signal of -0.173 E-score.

With CCGGTGAG, the binding signal is -0.153 E-score.

Turning to TATTCCCA, the binding signal amounted to 0.217 E-score.

As for CGGAAGCA, the binding signal was -0.174 E-score.

The sequence GAGCAAAC showed a binding signal of -0.163 E-score.

TCGAACAA: the binding signal was -0.0451 E-score.

Turning to AACAGATA, the binding signal worked out at 0.192 E-score.

CTTCTACC had a binding signal of 0.348 E-score.

Consider CAGCCATG, for which the binding signal was -0.126 E-score.

Sequence ACAGTAAT registered a binding signal of 0.32 E-score.

In the case of AACGATCC, the binding signal amounted to 0.163 E-score.

ATACCCAT displayed a binding signal of 0.25 E-score.

For the sequence GCGGTAGA, the binding signal stood at 0.278 E-score.

CGGGGGAC came in with a binding signal of -0.203 E-score.

Sequence CGTGCGAA had a binding signal of -0.0747 E-score.

The sequence GATCGTTA came in with a binding signal of 0.107 E-score.

ACGGCGAC registered a binding signal of -0.291 E-score.

For AGTCTCAA, the binding signal is -0.137 E-score.

GGGAGCGA gave a binding signal of -0.294 E-score.

AAAACCCC came in with a binding signal of -0.179 E-score.

The sequence GCTATAGA registered a binding signal of 0.023 E-score.

The sequence CCTAGAAG yielded a binding signal of -0.0621 E-score.

As for GTAGGGTA, the binding signal was 0.133 E-score.

Sequence GGAGTTAC had a binding signal of 0.0244 E-score.

As to AGGTCTCA, the binding signal is -0.0666 E-score.

In turn, CCTACTAG registered a binding signal of 0.18 E-score.

Take GGGGCTCA: the binding signal is -0.369 E-score.

As for CACGAGAG, the binding signal is -0.169 E-score.

For the sequence CTCCGTCA, the binding signal is -0.244 E-score.

For the sequence GTCTATCA, the binding signal was -0.0797 E-score.

For the sequence AGCTAGAG, the binding signal was found to be 0.0924 E-score.

The sequence AGGGCTAT returned a binding signal of 0.0863 E-score.

For ACCAGCGC, the binding signal was -0.192 E-score.

In turn, ACGGGCCC registered a binding signal of -0.309 E-score.

Consider ACAACCTA, for which the binding signal was 0.137 E-score.

CATCTTCC came in with a binding signal of -0.196 E-score.

In the case of CATGAAGC, the binding signal was -0.256 E-score.

With TAGAGAGA, the binding signal was found to be 0.0622 E-score.

Sequence CATAACTC showed a binding signal of 0.0989 E-score.

With ATCGTCCA, the binding signal is -0.0547 E-score.

As to CCGAGAAA, the binding signal was 0.0915 E-score.

Consider AGTATCTA, for which the binding signal stood at 0.351 E-score.

On to CGACTGGA, for which the binding signal is -0.0736 E-score.

ATGTCTGC had a binding signal of -0.0934 E-score.

In the case of AAATCTAT, the binding signal was determined as 0.4 E-score.

The sequence CGGAGGGA came in with a binding signal of -0.205 E-score.

Consider GCTCTTCC, for which the binding signal is -0.284 E-score.

For the sequence ATGAGTTC, the binding signal is -0.1 E-score.

As to CCACTGGG, the binding signal was -0.271 E-score.

TCTTCTAA had a binding signal of 0.0806 E-score.

The sequence AAACCGGG returned a binding signal of -0.214 E-score.

ACGGGATA yielded a binding signal of 0.00783 E-score.

Sequence TAATGTGA showed a binding signal of 0.171 E-score.

In the case of CAACCGCA, the binding signal was -0.0623 E-score.

For the sequence GGAGGAAC, the binding signal was -0.069 E-score.

For the sequence AAACGACC, the binding signal was -0.0936 E-score.

Turning to AGCAAGTG, the binding signal is 0.102 E-score.

Sequence AACTAATC yielded a binding signal of 0.129 E-score.

ATAGGGTC displayed a binding signal of 0.13 E-score.

GAAAATCA yielded a binding signal of 0.0193 E-score.

For CGAGCCAA, the binding signal is -0.127 E-score.

In turn, ACACGATC came in with a binding signal of 0.00401 E-score.

The sequence CGAGTCAC came in with a binding signal of -0.176 E-score.

Turning to GATTCTTA, the binding signal is 0.133 E-score.

Sequence ACACGTTG returned a binding signal of -0.142 E-score.

Consider CCCCTTCC, for which the binding signal was -0.354 E-score.

In the case of CCGCTTCA, the binding signal is -0.195 E-score.

Consider ACATTGAG, for which the binding signal was 0.031 E-score.

CTTATCAC had a binding signal of 0.102 E-score.

ATCTGAAA yielded a binding signal of 0.000445 E-score.

On to ACTTCTAA, for which the binding signal was found to be 0.113 E-score.

Consider TTGTAAAA, for which the binding signal is 0.265 E-score.

On to CAACATGG, for which the binding signal is -0.106 E-score.

Take AAAAATAG: the binding signal turned out to be 0.2 E-score.

ACCCGGGT: the binding signal was -0.287 E-score.

As to CTAAGCAA, the binding signal stood at 0.105 E-score.

As to GTATAGCA, the binding signal amounted to 0.145 E-score.

For the sequence ATATTTAC, the binding signal came out at 0.375 E-score.

With ACACGAGT, the binding signal was -0.105 E-score.

CGCGCCGA yielded a binding signal of -0.121 E-score.

In the case of GAATAGCC, the binding signal is -0.126 E-score.

In turn, GCCAGTCC yielded a binding signal of -0.159 E-score.

In the case of CTTCGGGC, the binding signal was -0.0805 E-score.

Regarding AACATCAA, the binding signal came to 0.0372 E-score.

Sequence AGACTACA came in with a binding signal of 0.0455 E-score.

TCCTGCAA came in with a binding signal of -0.114 E-score.

Consider GCGCGAAA, for which the binding signal came to 0.0801 E-score.

For the sequence CCTCACTA, the binding signal was determined as 0.0289 E-score.

In the case of CCCAACCC, the binding signal is -0.149 E-score.

Sequence TGGCGGAA yielded a binding signal of -0.262 E-score.

CAGGTGAC showed a binding signal of -0.0368 E-score.

For the sequence AAAAGATT, the binding signal is 0.219 E-score.

For the sequence AGGTAACC, the binding signal was -0.0558 E-score.

In turn, ATTCAGGG came in with a binding signal of -0.18 E-score.

In turn, AGACCACT yielded a binding signal of -0.0232 E-score.

AAAATAGA: the binding signal stood at 0.271 E-score.

Regarding TCCGGTCA, the binding signal is -0.0339 E-score.

Sequence AGACGAGC displayed a binding signal of -0.285 E-score.

In the case of TCTGAGCA, the binding signal was -0.245 E-score.

ACCTTTTG displayed a binding signal of 0.221 E-score.
